In experiment [1] the target is T1, GST-tagged Ana2-4D (phosphomimetic Ana2) (Drosophila) (UniProt Q9XZ31).
T1 sequence: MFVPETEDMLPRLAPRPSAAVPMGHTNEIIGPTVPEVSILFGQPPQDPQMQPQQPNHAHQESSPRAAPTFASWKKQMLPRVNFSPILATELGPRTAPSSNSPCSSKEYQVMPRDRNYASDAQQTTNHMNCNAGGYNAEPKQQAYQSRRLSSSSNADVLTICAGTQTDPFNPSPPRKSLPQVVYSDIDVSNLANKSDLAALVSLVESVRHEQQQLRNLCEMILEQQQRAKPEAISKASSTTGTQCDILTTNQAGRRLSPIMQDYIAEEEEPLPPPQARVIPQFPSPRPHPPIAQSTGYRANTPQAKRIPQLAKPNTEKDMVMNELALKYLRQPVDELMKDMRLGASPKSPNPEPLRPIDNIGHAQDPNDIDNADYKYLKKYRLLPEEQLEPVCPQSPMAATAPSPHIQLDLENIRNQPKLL
Description: pull-down; bait from lysate on Glutathione-Sepharose 4B, washed; lysate with MBP-tagged prey added, 1 h at 4°C; washes in 20 mM Tris–HCl pH 7.5, 250 mM NaCl, 5% glycerol, 1 mM DTT, 0.5% Triton; SDS–PAGE with PageBlue staining; only the target purified.

Experiment [2] has as its target T2, GST-Ana2-4D deletion aa375–383 (Drosophila) (UniProt Q9XZ31).
T2 sequence: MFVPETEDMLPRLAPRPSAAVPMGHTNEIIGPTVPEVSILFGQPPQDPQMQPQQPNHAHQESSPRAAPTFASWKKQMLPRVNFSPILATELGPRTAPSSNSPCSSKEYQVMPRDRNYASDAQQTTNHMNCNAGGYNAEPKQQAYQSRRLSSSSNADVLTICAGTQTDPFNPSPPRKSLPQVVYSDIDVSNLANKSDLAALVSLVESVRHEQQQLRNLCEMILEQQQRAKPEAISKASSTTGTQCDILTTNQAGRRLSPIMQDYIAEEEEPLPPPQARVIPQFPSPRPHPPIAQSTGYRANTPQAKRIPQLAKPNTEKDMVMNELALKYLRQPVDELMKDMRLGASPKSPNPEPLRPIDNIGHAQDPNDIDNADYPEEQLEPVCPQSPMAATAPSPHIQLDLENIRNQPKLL
Described as above.

Experiment [3] addresses T3, GST-Ana2-4D deletion aa325–331 (Drosophila) (UniProt Q9XZ31).
T3 sequence: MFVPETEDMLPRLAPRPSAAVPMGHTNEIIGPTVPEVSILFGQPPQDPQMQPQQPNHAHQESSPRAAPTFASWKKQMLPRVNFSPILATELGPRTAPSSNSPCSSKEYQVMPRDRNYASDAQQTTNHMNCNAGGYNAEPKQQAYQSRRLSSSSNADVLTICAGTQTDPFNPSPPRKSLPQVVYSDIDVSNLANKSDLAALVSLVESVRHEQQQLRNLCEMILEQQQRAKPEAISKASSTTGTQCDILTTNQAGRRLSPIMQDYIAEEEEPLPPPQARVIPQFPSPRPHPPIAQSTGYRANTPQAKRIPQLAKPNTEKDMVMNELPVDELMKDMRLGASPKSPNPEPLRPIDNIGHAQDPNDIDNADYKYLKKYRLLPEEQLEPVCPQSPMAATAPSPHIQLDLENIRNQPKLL
The experiment is described as above.

Experiment [4] addresses T4, GST-Ana2-4D with both deletions aa325–331 and aa375–383 (Drosophila) (UniProt Q9XZ31).
T4 sequence: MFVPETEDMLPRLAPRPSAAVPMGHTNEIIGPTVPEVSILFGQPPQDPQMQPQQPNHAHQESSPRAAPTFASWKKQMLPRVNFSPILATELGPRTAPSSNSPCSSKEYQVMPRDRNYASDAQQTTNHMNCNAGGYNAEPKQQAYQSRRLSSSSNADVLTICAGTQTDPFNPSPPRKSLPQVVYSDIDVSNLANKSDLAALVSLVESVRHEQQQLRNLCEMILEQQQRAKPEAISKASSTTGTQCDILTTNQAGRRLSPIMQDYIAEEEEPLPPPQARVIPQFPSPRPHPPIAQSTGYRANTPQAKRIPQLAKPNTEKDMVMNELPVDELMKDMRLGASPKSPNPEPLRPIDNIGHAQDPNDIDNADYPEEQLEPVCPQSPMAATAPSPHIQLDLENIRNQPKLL
Described as above.

Experiment [5] has as its target T5, GST-tagged Ana2 wild-type (Drosophila), Q9XZ31.
T5 chain: T1 sequence with D318S, D365S, D370S, D373S
Described as above. Conditions: remark: other sources report otherwise.

In experiment [6] the target is T6, 3xFLAG-Ana2-4D (Drosophila) (UniProt Q9XZ31).
T6 sequence: T1 sequence
Description: co-IP; D.Mel-2 cells co-transfected with 3xFLAG-Ana2 (4A or 4D) and Sas6-6xMyc (wt or Δ385-410), 25 µM MG132 for 5 h; anti-FLAG M2 magnetic beads; immunoblotting.

Changes are numbered by the printed parent chain. Names may count otherwise. These are yes or no findings as the source states them, for the method shown. In cells and extracts the contact can be indirect. Some binding calls cover weakened binding; strength is not graded here. Sequences can lack the tags named with a protein.

B1: MBP-Sas6 deletion aa385–398 (protein, UniProt Q9VAC8)
chain: MWPPGSEDSYSAKMDYGKSVVNILPSVEMLVNFNGEMTRSSKRSCLLYAERVDFKELLQLRLTEKSDQRRMYITTVDSASFQDLKQDQSLNVSFSGFIDNVVRMLKDCQSGKLELHLTTRDQNLSSGREVHDYYLQFVEIRSFKNLVHLSLPCRSAPLNTVLFYINSMLEASHKKQYILEQSMQQMQAEINAQRAHAERLTTENTNIREALAENTRILEEKHAAEVHQYQEKLSKINEQRSNELERNRRAISGFQAQLDKASLEKAELKSAQEQAEKRCQTLSEELSCCKARVCTLKEQNDKLHGDVANIRKHERKLEYKIEDLKQHTVELQEHIQKGNKEKANIAAELEAEKKILHTKRQALEMASEEISKANQIIVKQSQELLQQEKAVQAKESLLSLRENELREARITIEKLREEIPQQLQSMRNFAQGLEQKYSKQILILKERLAIPTGKENRR
With B1, the binding entry in experiment [1] is listed as “no binding”.

B2: MBP-Sas6 deletion aa398–410 (protein, UniProt Q9VAC8)
chain: MWPPGSEDSYSAKMDYGKSVVNILPSVEMLVNFNGEMTRSSKRSCLLYAERVDFKELLQLRLTEKSDQRRMYITTVDSASFQDLKQDQSLNVSFSGFIDNVVRMLKDCQSGKLELHLTTRDQNLSSGREVHDYYLQFVEIRSFKNLVHLSLPCRSAPLNTVLFYINSMLEASHKKQYILEQSMQQMQAEINAQRAHAERLTTENTNIREALAENTRILEEKHAAEVHQYQEKLSKINEQRSNELERNRRAISGFQAQLDKASLEKAELKSAQEQAEKRCQTLSEELSCCKARVCTLKEQNDKLHGDVANIRKHERKLEYKIEDLKQHTVELQEHIQKGNKEKANIAAELEAEKKILHTKRQALEMASEEISKANQIIVKQSQELLNLKKTIAWRTEVLLSLRENELREARITIEKLREEIPQQLQSMRNFAQGLEQKYSKQILILKERLAIPTGKENRR
Take B2: the binding result in experiment [1] is “binds weakly”.

B3: MBP-Sas6 wild-type (protein, UniProt Q9VAC8 1-472)
chain: MWPPGSEDSYSAKMDYGKSVVNILPSVEMLVNFNGEMTRSSKRSCLLYAERVDFKELLQLRLTEKSDQRRMYITTVDSASFQDLKQDQSLNVSFSGFIDNVVRMLKDCQSGKLELHLTTRDQNLSSGREVHDYYLQFVEIRSFKNLVHLSLPCRSAPLNTVLFYINSMLEASHKKQYILEQSMQQMQAEINAQRAHAERLTTENTNIREALAENTRILEEKHAAEVHQYQEKLSKINEQRSNELERNRRAISGFQAQLDKASLEKAELKSAQEQAEKRCQTLSEELSCCKARVCTLKEQNDKLHGDVANIRKHERKLEYKIEDLKQHTVELQEHIQKGNKEKANIAAELEAEKKILHTKRQALEMASEEISKANQIIVKQSQELLNLKKTIAWRTEVALQQEKAVQAKESLLSLRENELREARITIEKLREEIPQQLQSMRNFAQGLEQKYSKQILILKERLAIPTGKENRR
For B3, the binding result in experiment [2] is recorded as “binds”; in experiment [1] it was “binds”; in experiment [3] it was “binds weakly”; in experiment [4], “binds weakly”.

B4: MBP-Sas6 wild-type, Q9VAC8 1-472 (protein)
chain: B3 chain
For B4, in experiment [5], the binding result was “no binding”.

B5: MBP-Sas6 polyalanine mutant (V397A, Q400A, Q401A, E402A, K403A) (protein, UniProt Q9VAC8 1-472)
chain: B3 chain with V397A, Q400A, Q401A, E402A, K403A
B5: the binding entry in experiment [1] is “no binding”.

B6: Sas6-wt-6xMyc (protein, UniProt Q9VAC8 1-472)
chain: B3 chain
Turning to B6, the binding entry in experiment [6] is given as “binds”.

B7: MBP-Sas6 deletion aa385–410 (protein, UniProt Q9VAC8)
chain: MWPPGSEDSYSAKMDYGKSVVNILPSVEMLVNFNGEMTRSSKRSCLLYAERVDFKELLQLRLTEKSDQRRMYITTVDSASFQDLKQDQSLNVSFSGFIDNVVRMLKDCQSGKLELHLTTRDQNLSSGREVHDYYLQFVEIRSFKNLVHLSLPCRSAPLNTVLFYINSMLEASHKKQYILEQSMQQMQAEINAQRAHAERLTTENTNIREALAENTRILEEKHAAEVHQYQEKLSKINEQRSNELERNRRAISGFQAQLDKASLEKAELKSAQEQAEKRCQTLSEELSCCKARVCTLKEQNDKLHGDVANIRKHERKLEYKIEDLKQHTVELQEHIQKGNKEKANIAAELEAEKKILHTKRQALEMASEEISKANQIIVKQSQELLLSLRENELREARITIEKLREEIPQQLQSMRNFAQGLEQKYSKQILILKERLAIPTGKENRR
B7: the binding result in experiment [1] is on record as “no binding”.

B8: Sas6-Δ385–410-6xMyc (protein, UniProt Q9VAC8)
chain: B7 chain
Take B8: the binding entry in experiment [6] was “no binding”.
